From PubChem BioAssay (NCATS)
Inconclusive results, whose numbers are uncertain, are shown with a selection of clear calls. No potency is given beside an inconclusive call; the fits are too rough. The source made the active and inactive calls. The call rests on the fitted dose curve; in most records, active means well fitted inhibition curve with a large enough effect; inconclusive means small, poorly fitted or top-dose-only effect; inactive means flat fitted curve, though single readings scatter.

target: Dual specificity protein kinase CLK4 (Homo sapiens) (UniProt Q9HAZ1); test: qHTS Assay for Inhibitors of CDC-like Kinase 4 (Kinase-Glo Assay) (AID 1770); conditions: recombinant Clk4, Kinase-Glo ATP depletion luminescence; series mostly up to 66.7 µM; further: nearly all actives have a fitted effect of over 65% in size
Method in brief: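 25 nM Clk4 with 100 uM RS repeat peptide and 1 uM ATP (final) in Tris pH7.5, 10 mM MgCl2, 4.5 h at room temperature. Remaining ATP measured by Kinase-Glo luciferase luminescence.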
Potency means the concentration at half of the fitted maximal effect; tags describe the fitted curve by direction and shape.

Sequence of UniProt Q9HAZ1 (Q9HAZ1 whole entry, looked up): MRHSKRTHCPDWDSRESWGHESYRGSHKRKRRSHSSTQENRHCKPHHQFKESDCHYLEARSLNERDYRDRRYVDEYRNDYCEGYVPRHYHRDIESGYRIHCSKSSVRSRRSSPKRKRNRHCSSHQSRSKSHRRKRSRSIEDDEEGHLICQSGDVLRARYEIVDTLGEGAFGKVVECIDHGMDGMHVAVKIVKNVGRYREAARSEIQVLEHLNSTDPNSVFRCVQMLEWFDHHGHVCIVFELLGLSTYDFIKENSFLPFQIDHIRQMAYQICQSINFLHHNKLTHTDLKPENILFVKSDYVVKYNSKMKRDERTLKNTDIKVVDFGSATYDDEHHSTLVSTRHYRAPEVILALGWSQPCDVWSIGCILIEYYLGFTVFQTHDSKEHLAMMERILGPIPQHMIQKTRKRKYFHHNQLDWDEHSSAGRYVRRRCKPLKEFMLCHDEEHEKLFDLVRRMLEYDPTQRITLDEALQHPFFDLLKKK

| Structure (SMILES) | Potency |
| --- | --- |
| Cc1ccccc1-c1nccc(NCc2cccnc2)n1 | inconclusive [falling, partial curve] |
| c1csc(CNc2nc(-c3ccoc3)nc3ccccc23)c1 | inconclusive [falling, partial curve] |
| CN(C)C(=O)c1ccc(-c2ccc3ncnc(NCCN4CCOCC4)c3c2)cc1 | inconclusive [falling, single point] |
| CN(C)c1ncnc2ccc(-c3cccc(C#N)c3)cc12 | active: 14.1 µM |
| CCNc1ncc2nc(-c3cccs3)c(=O)n(C[C@H]3CCCO3)c2n1 | inconclusive [falling, partial curve] |
| CN1CCN(c2ncc3nc(-c4cccs4)c(=O)n(CCC#N)c3n2)CC1 | inconclusive [falling, partial curve] |
| Cc1cnc(CNc2cc(-c3cccc(NS(C)(=O)=O)c3)ncn2)cn1 | active: 25.1 µM |
| CCNc1ncc2nc(-c3ccc(Cl)cc3)c(=O)n(Cc3cccs3)c2n1 | inconclusive [falling, single point] |
| CN(C)C(=O)c1ccc(-c2ccc3ncnc(N4CCNCC4)c3c2)cc1 | inconclusive [falling, partial curve] |
| COc1ccccc1-c1nc(NCc2cccs2)c2ccccc2n1 | inconclusive [falling, single point] |
| COc1ccccc1-c1cc(Nc2ccc(F)cc2)ncn1 | inconclusive [falling, partial curve] |
| COc1ccccc1-c1cncnc1NCc1ccccc1 | inconclusive [falling, single point] |
